{
  "source": "PubChem BioAssay AID463173",
  "about": "(ICCB-Longwood Screening Facility, Harvard Medical School, 2010)",
  "note": "Screen size: about 52,000 compounds; about 4,300 (8.3%) were called active. No stated cut-off is given here; in the data, active means survival mostly below about 52% (no sharp cut-off); inactive means mostly above about 56%. The list shows a part of the results.",
  "data": [
    {"tested_on": "DeltatarO mutant", "assay": "growth inhibition of S. aureus wild type versus tarO mutant, primary screen, teichoic acid synthesis inhibitors, RN4220, OD600 (AID 463173)", "settings": "OD600, 18 h, active compounds read low, screened at 18.75 µg/mL (by protocol)", "values": [
      {"smiles": "Nc1c(-c2nc(-c3ccccc3Cl)no2)nnn1-c1ccccc1F", "survival": "inactive: 79%"},
      {"smiles": "COC(=O)c1cc2oc3ccccc3c2n1CC(=O)Nc1ccc(N(C)C)cc1", "survival": "inactive: 76%"},
      {"smiles": "Cc1ccc(S(=O)(=O)N(CC(=O)Nc2c(C)cccc2C)c2cccc(Cl)c2)cc1", "survival": "active: 46%"},
      {"smiles": "Cc1nc2nc(C)c(CCC(=O)NCCc3ccccc3)c(C)n2n1", "survival": "inactive: 81%"},
      {"smiles": "O=C(Cn1cc(S(=O)(=O)Cc2ccccc2Cl)c2ccccc21)Nc1cccc(C(F)(F)F)c1", "survival": "inactive: 75%"},
      {"smiles": "CCOc1ccc(C(NC(=O)c2cc(OC)c(OC)c(OC)c2)c2cc(Cl)c3cccnc3c2O)cc1", "note": "(stereo unspecified)", "survival": "inactive: 120%"},
      {"smiles": "Cc1ccc2nc(CN3CCN(S(=O)(=O)c4ccccc4)CC3)oc2c1", "survival": "inactive: 77%"},
      {"smiles": "CCc1ccc(NC(=O)CSc2nc3ccccc3c(=O)n2CCC(=O)NC2CCCCC2)cc1", "survival": "inactive: 67%"},
      {"smiles": "COC(=O)c1cc(C)nc2c1c(=O)nc(SCc1c(C)cc(C)cc1C)n2C1CC1", "survival": "inactive: 79%"},
      {"smiles": "CCS(=O)(=O)N1CC(=O)N(c2ccc(C)c(C)c2)C(C)(C(=O)NC2CCCCCC2)C1", "note": "(stereo unspecified)", "survival": "inactive: 80%"},
      {"smiles": "Cc1cc(C)c2[nH]c(=O)c(CN(CCN3CCOCC3)C(=S)NCC3CCCO3)cc2c1", "note": "(stereo unspecified)", "survival": "inactive: 95%"},
      {"smiles": "CCCN(C(=O)c1cn(CC(C)C)c(=O)c2cc(OC)c(OC)cc12)c1cccc(C)c1", "survival": "inactive: 152%"},
      {"smiles": "COc1ccc(-c2cn3c(n2)sc2cc(C(=O)N4CCCCC4)ccc23)cc1", "survival": "inactive: 51%"},
      {"smiles": "Cc1cc(S(=O)(=O)Nc2ccc3[nH]c(=O)sc3c2)ccc1F", "survival": "inactive: 73%"},
      {"smiles": "Cn1cc(S(=O)(=O)N2CCCCC2)cc1C(=O)NCc1ccc(Cl)cc1", "survival": "inactive: 74%"},
      {"smiles": "CCC(=O)Nc1nnc(S(=O)(=O)N2CCCCCC2)s1", "survival": "inactive: 89%"},
      {"smiles": "COc1ccc(NC(=O)C(NS(=O)(=O)c2cccc3nsnc23)c2ccccc2)cc1", "note": "(stereo unspecified)", "survival": "inactive: 90%"},
      {"smiles": "CCOc1cc(-c2nnc(SCC(=O)NCCCOC)nc2-c2ccc(OC)c(OCC)c2)ccc1OC", "survival": "inactive: 73%"},
      {"smiles": "CCC(CC)c1nn2cc(-c3ccccc3)nc2s1", "survival": "inactive: 112%"},
      {"smiles": "CCCCSc1nnc2c(n1)OC(c1ccc(C)s1)Nc1ccccc1-2", "note": "(stereo unspecified)", "survival": "active: 41%"},
      {"smiles": "CN=C1SC(C(=O)Nc2ccccc2)CC(=O)N1C", "note": "(stereo unspecified)", "survival": "inactive: 98%"},
      {"smiles": "CCCCNC(=O)CN1CCN(c2ncc(NC(=O)c3ccc(Cl)cc3)cc2C(=O)O)CC1", "survival": "inactive: 94%"},
      {"smiles": "CCCOc1cccc(C2c3c(oc4ccc(F)cc4c3=O)C(=O)N2c2nc(C)c(C(C)=O)s2)c1", "note": "(stereo unspecified)", "survival": "inactive: 65%"},
      {"smiles": "Cc1cc(C)c(NC(=O)CSc2nc3c([nH]c4ccccc43)c(=O)n2C)c(C)c1", "survival": "inactive: 78%"},
      {"smiles": "COc1ccc(CCNC(=O)c2ccc(Cn3c(=O)[nH]c4cc(OC)c(OC)cc4c3=O)cc2)cc1OC", "survival": "inactive: 81%"},
      {"smiles": "O=c1[nH]c2nonc2nc1/C=C(\\O)c1ccccc1", "survival": "active: 15%"},
      {"smiles": "COc1ccccc1-c1nc(SCC(=O)c2ccc(Cl)cc2)n[nH]1", "survival": "inactive: 175%"},
      {"smiles": "CCC(=O)Nc1sc2c(c1C(=O)Nc1ccc(Br)cc1)CCCCC2", "survival": "inactive: 135%"},
      {"smiles": "CCN(C(=O)Cn1ncc2c(=O)oc3ccccc3c21)c1ccccc1F", "survival": "inactive: 118%"},
      {"smiles": "O=c1c2ccccc2n(Cc2cccc(Cl)c2)c(=O)n1Cc1ccccc1", "survival": "inactive: 124%"},
      {"smiles": "CN1CCN(C(CNC(=O)c2c(F)cccc2F)c2ccc3c(c2)OCO3)CC1", "note": "(stereo unspecified)", "survival": "inactive: 67%"},
      {"smiles": "CC(=O)N1N=C(c2ccccc2)CC1c1ccccc1", "note": "(stereo unspecified)", "survival": "inactive: 94%"},
      {"smiles": "Cc1cccc(N2CCN(C(=O)c3cc4ccc5cccnc5c4[nH]3)CC2C)c1", "note": "(stereo unspecified)", "survival": "inactive: 92%"},
      {"smiles": "N#CC(C(=O)c1ccc(F)cc1)c1nc2ccccc2[nH]1", "note": "(stereo unspecified)", "survival": "inactive: 86%"},
      {"smiles": "CCC(C)NC(=O)c1sc2nc3n(c(=O)c2c1C)CCC3", "note": "(stereo unspecified)", "survival": "inactive: 93%"},
      {"smiles": "COCCc1nn2c(=O)cc(COC(=O)c3ccc(Br)cc3)nc2s1", "survival": "inactive: 126%"},
      {"smiles": "COc1cccc2c1cc1c(=O)n(CC(=O)N3CCC(C)CC3)nc(C)n12", "survival": "inactive: 84%"},
      {"smiles": "O=C1NC(=O)C(Nc2cccc3ccccc23)S1", "note": "(stereo unspecified)", "survival": "inactive: 82%"},
      {"smiles": "COCCCNc1nc(NCc2ccc(C)cc2)c2cnn(C)c2n1", "survival": "inactive: 68%"},
      {"smiles": "CCCCc1nn2c(=O)cc(COC(=O)c3ccccc3C)nc2s1", "survival": "inactive: 83%"},
      {"smiles": "Cc1ccc(-n2nc3c(=O)n(C(C)C(=O)NCc4ccccc4C)nc(C)c3c2C)cc1", "note": "(stereo unspecified)", "survival": "inactive: 94%"},
      {"smiles": "CCOc1ccccc1NS(=O)(=O)c1cc(-c2cnc(C3CC3)o2)ccc1C", "survival": "inactive: 116%"},
      {"smiles": "CN(Cc1ccccc1)S(=O)(=O)c1ccc2c3c(cccc13)C(=O)N2", "survival": "inactive: 82%"},
      {"smiles": "CC1=CC(C)(C)N(C(=O)CNC2CCCCC2)c2cc(C)ccc21", "survival": "inactive: 107%"},
      {"smiles": "Cc1ccc(NC(=O)CCN2C(=O)c3ccccc3Sc3ncccc32)c(Cl)c1", "survival": "inactive: 74%"},
      {"smiles": "COc1ccccc1NC(=O)c1sc2nc(C)c(C(=O)Nc3ccc(C)cc3C)c(-c3ccccc3Cl)c2c1N", "survival": "inactive: 135%"},
      {"smiles": "COc1cc(OC)cc(C(=O)NCCc2csc(-c3ccc(C(F)(F)F)cc3)n2)c1", "survival": "inactive: 81%"},
      {"smiles": "Cc1ccc2oc(=O)c3cc(C(=O)NCCc4ccc(Cl)cc4)sc3c2c1", "survival": "inactive: 93%"},
      {"smiles": "Cc1cc(C)c(O)c(N)c1", "survival": "active: 39%"},
      {"smiles": "CCc1cccc(C)c1NC(=O)CCS(=O)(=O)c1ccc2c(c1)oc(=O)n2C", "survival": "inactive: 84%"},
      {"smiles": "COc1cccc(CN(C(=O)c2oc3ccccc3c2C)C2CCS(=O)(=O)C2)c1", "note": "(stereo unspecified)", "survival": "inactive: 69%"},
      {"smiles": "CNC(=O)c1c(NC(=O)Cc2coc3ccc(OC)cc23)sc2c1CCCC2", "survival": "inactive: 65%"},
      {"smiles": "Cc1ccc(C)c(NC(=O)CSc2nc(=O)n(Cc3ccncc3)c3c2CCC3)c1", "survival": "inactive: 73%"},
      {"smiles": "CC(=O)N1c2ccc(S(=O)(=O)NCCC(=O)N(C)Cc3ccccc3)cc2CC1C", "note": "(stereo unspecified)", "survival": "inactive: 83%"},
      {"smiles": "Cc1cc2n(n1)CCC(=O)N2Cc1ccc(C(=O)Nc2cccc(C(F)(F)F)c2)cc1", "survival": "inactive: 101%"},
      {"smiles": "CCCn1nnnc1SCC(=O)N1CCCC1", "survival": "inactive: 94%"},
      {"smiles": "COc1ccc(-c2noc(CSc3nc4ccccc4[nH]3)n2)cc1", "survival": "inactive: 51%"},
      {"smiles": "Cc1ccc(Nc2c(-c3ccc(C)cc3)nc3c(C)cccn23)cc1", "survival": "active: 9%"},
      {"smiles": "CC(C)c1ccc(Nc2c(-c3ccc(N(C)C)cc3)nc3cnccn23)cc1", "survival": "active: 43%"},
      {"smiles": "O=C(NCCc1ccc(Cl)cc1)C(=O)NCC(c1cccs1)S(=O)(=O)c1ccccc1", "note": "(stereo unspecified)", "survival": "inactive: 77%"},
      {"smiles": "O=C(CSc1nnc(-c2ccccc2O)o1)Oc1ccc(OCc2ccccc2)cc1", "survival": "inactive: 86%"},
      {"smiles": "CCCNC(=O)C(Cc1ccccc1)NS(=O)(=O)c1ccc2c(c1)c(=O)n(C)c(=O)n2C", "note": "(stereo unspecified)", "survival": "inactive: 94%"},
      {"smiles": "CCOc1ccc(C(=O)Nc2ccc3c(c2)OCCO3)cc1Br", "survival": "active: 37%"},
      {"smiles": "Cc1ccc(-c2csc3ncnc(Nc4ccc(C(=O)O)cc4)c23)cc1", "survival": "inactive: 118%"},
      {"smiles": "COc1cc(NS(=O)(=O)c2ccc(-c3cc(C)no3)cc2)cc(OC)c1", "survival": "inactive: 99%"},
      {"smiles": "CCN(CC)S(=O)(=O)c1cccc(C(=O)NCc2ccccc2)c1", "survival": "inactive: 49%"},
      {"smiles": "Nc1c(-c2nc(-c3ccc4c(c3)OCO4)cs2)c2ccccn2c1C(=O)c1ccc(Cl)cc1", "survival": "inactive: 105%"},
      {"smiles": "O=C(O)c1ccc(NC(=O)c2ccc(Br)c(S(=O)(=O)N3CCCC3)c2)cc1", "survival": "inactive: 55%"},
      {"smiles": "CCOc1ccc(NC(=O)Cc2c[nH]c3ccccc23)cc1", "survival": "inactive: 80%"},
      {"smiles": "Cc1ccc(SCc2nc(-c3ccc(C(=O)NCC(C)c4ccccc4)cc3)oc2C)cc1", "note": "(stereo unspecified)", "survival": "inactive: 86%"},
      {"smiles": "CCCC12CN3CC(C)(CN(C1)C3c1ccc(OCc3ccccc3)cc1)C2=O", "note": "(stereo unspecified)", "survival": "inactive: 80%"},
      {"smiles": "Cc1cccc(CNC(=O)CN2C(=O)CCn3nc(-c4cn(C)c5ccccc45)cc32)c1", "survival": "inactive: 119%"},
      {"smiles": "COc1ccc2c(c1)CCc1c(C(=O)Nc3ccc(OC)cc3OC)noc1-2", "survival": "inactive: 180%"},
      {"smiles": "COc1ccccc1NC(=O)c1sc2nc3n(c(=O)c2c1C)N=C(c1cccc(Br)c1)CS3", "survival": "inactive: 80%"},
      {"smiles": "Cn1c(C(=O)OCC(=O)NCc2cccs2)cc2sccc21", "survival": "inactive: 102%"},
      {"smiles": "COc1ccc(Cn2c(C(=O)O)c(CNC3CCCCC3)c3ccc(C)cc32)cc1", "survival": "inactive: 84%"},
      {"smiles": "COC(=O)c1ccc2c(c1)N(Cc1ccccc1)C(=O)c1ccccc1S2(=O)=O", "survival": "inactive: 86%"},
      {"smiles": "CCc1ccc(-n2c(SCC(=O)NCC(C)C)nnc2-c2ccncc2)cc1", "survival": "inactive: 96%"},
      {"smiles": "Cc1nc(S(=O)(=O)N2CCN(c3ccccc3F)CC2)cn1C", "survival": "inactive: 117%"},
      {"smiles": "CC(=O)c1cc(-c2ccc(F)cc2)n(CCC(=O)Nc2nc3ccc(C)cc3s2)c1C", "survival": "inactive: 69%"},
      {"smiles": "CC(C)OC(=O)Cn1c(C2CC2)nc2ccccc2c1=O", "survival": "inactive: 106%"},
      {"smiles": "COc1ccc(-c2nc3cc(NC(=O)c4ccc(C)cc4)ccc3o2)cc1Cl", "survival": "inactive: 76%"},
      {"smiles": "CCOc1ccc(Br)cc1C1NC(=O)c2c(sc3c2CCN(C)C3)N1", "note": "(stereo unspecified)", "survival": "inactive: 60%"},
      {"smiles": "Cc1ccc(C(=O)N2CCC(C)CC2)cc1NC(=O)c1nsc2ccccc12", "survival": "inactive: 96%"},
      {"smiles": "O=C(OCc1cc(=O)n2nc(C3CC3)sc2n1)c1ccc(NC(=O)c2ccccc2F)cc1", "survival": "inactive: 84%"},
      {"smiles": "CCN(c1ccccc1)S(=O)(=O)c1ccc(NC(=O)c2nc(SC(C)C)ncc2Cl)cc1", "survival": "active: 44%"},
      {"smiles": "CCOC(=O)c1cnc2ccc(OCC)cc2c1Nc1ccc(OCc2ccccc2Cl)cc1", "survival": "active: 9%"},
      {"smiles": "Cc1cccc(CNC(=O)CN2C(=O)CSc3c2c(C)nn3-c2ccccc2)c1", "survival": "inactive: 89%"},
      {"smiles": "COc1cc(C(CC(=O)Nc2ncccc2C)N2Cc3ccccc3C2=O)cc(OC)c1OC", "note": "(stereo unspecified)", "survival": "inactive: 79%"},
      {"smiles": "CCOc1ccc(NC(=O)CSc2oc(-c3ccc(C)cc3)nc2S(=O)(=O)c2ccc(C)cc2)cc1", "survival": "inactive: 127%"},
      {"smiles": "COc1ccc(-c2cc(C(F)(F)F)nc(NCc3ccc(F)cc3)n2)cc1", "survival": "active: 1%"}
    ]}
  ]
}
